Data from the supplement of paper PMC9446081.
Screen size: about 39,000 compounds; about 220 (0.56%) showed activity. The list shows a part of the results.

Test system: Escherichia coli K-12 BW25113
Experiment: relative growth (OD600 normalised to plate interquartile mean) (fraction); higher = less growth inhibition, active = 0.2 or less
Conditions: 50 µM; LB; incubation time: overnight (16-24 h)
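Also: static incubation at 37 °C against the wild-type strain, values averaged over two biological replicates.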

Compound | relative growth
C[C@@H]1CCCCO[C@H](CN(C)C(=O)Nc2ccccc2)[C@@H](C)CN([C@@H](C)CO)C(=O)c2cc(NC(=O)c3ccncc3)ccc2O1 | inactive: 0.994
CO[C@@H]1CN(C)C(=O)c2ccc(NC(=O)Nc3ccccc3)cc2OC[C@H](C)N(C(=O)CN(C)C)C[C@H]1C | inactive: 0.925
C[C@H](CO)N1C[C@H](C)[C@H](CN(C)S(C)(=O)=O)Oc2ccc(NC(=O)Cn3cnnn3)cc2C1=O | inactive: 1.02
COc1ccc(NC(=O)Nc2ccc3c(c2)C(=O)N([C@H](C)CO)C[C@@H](C)[C@H](CN(C)S(=O)(=O)c2ccc(Cl)cc2)OCCCC[C@@H](C)O3)cc1 | inactive: 1.06
CO[C@H]1CN(C)C(=O)c2ccc(NC(=O)NC(C)C)cc2OC[C@@H](C)N(Cc2ccc(-c3ccccn3)cc2)C[C@@H]1C | inactive: 1
NCc1ccc(-c2nccs2)cc1 | inactive: 0.993
C=CCNC1=C2C[C@@H](C)C[C@H](OC)[C@H](O)[C@@H](C)/C=C(\C)[C@H](OC(N)=O)[C@@H](OC)/C=C\C=C(/C)C(=O)NC(=CC1=O)C2=O | inactive: 0.983
O=C(C[C@@H]1C[C@H]2c3cc(NC(=O)Nc4ccc(C(F)(F)F)cc4)ccc3O[C@H]2[C@H](CO)O1)NCc1ccc(Cl)cc1 | inactive: 0.984
O=C(C[C@H]1CC[C@H]2[C@@H](COC[C@@H](O)CN2S(=O)(=O)c2ccccc2)O1)N1CCOCC1 | inactive: 0.964
C[C@H](CO)N1C[C@H](C)[C@H](CN(C)Cc2ccc(C(F)(F)F)cc2)Oc2c(NS(=O)(=O)c3ccc(Cl)cc3)cccc2C1=O | inactive: 0.994
C[C@H](CO)N1C[C@H](C)[C@@H](CN(C)CC2CC2)Oc2ccc(NC(=O)Cn3cnnn3)cc2CC1=O | inactive: 1
C[C@@H]1CN([C@@H](C)CO)C(=O)c2cc(NS(=O)(=O)c3ccc(Cl)cc3)ccc2O[C@@H](C)CCCCO[C@@H]1CN(C)Cc1ccncc1 | inactive: 1
C[C@@H]1CCCCO[C@H](CN(C)C(=O)Nc2ccccc2)[C@@H](C)CN([C@@H](C)CO)C(=O)c2cc(NC(=O)C3CCCCC3)ccc2O1 | inactive: 0.963
C[C@H](CO)N1C[C@H](C)[C@H](CN(C)Cc2ccc(C(=O)O)cc2)OCCCC[C@H](C)Oc2ccc(NS(=O)(=O)c3ccc(F)cc3)cc2C1=O | inactive: 1
C=CC[C@@H](CC(=O)N[C@H](CO)Cc1ccccc1)C(=O)N[C@H](C)COC(=O)[C@@H](CC=C)CC(=O)OC(C)(C)C | inactive: 0.996
COc1ccc(NC(=O)Nc2ccc3c(c2)C(=O)N([C@@H](C)CO)C[C@H](C)[C@H](CN(C)Cc2ccc(Cl)c(Cl)c2)O3)cc1 | inactive: 1.03
C[C@@H]1CCCCO[C@@H](CN(C)C(=O)C2CCCCC2)[C@@H](C)CN([C@@H](C)CO)C(=O)c2cc(NC(=O)Nc3cccc4ccccc34)ccc2O1 | inactive: 1.01
C[C@H](CO)N1C[C@H](C)[C@H](CN(C)C(=O)C2CCCCC2)Oc2cc(C#CC3CC3)ccc2S1(=O)=O | inactive: 1.01
C[C@@H]1CCCCO[C@H](CN(C)S(=O)(=O)c2ccccc2)[C@@H](C)CN([C@@H](C)CO)C(=O)c2cc(NC(=O)Nc3ccc(F)cc3)ccc2O1 | inactive: 1.02

Compound | relative growth
C[C@H](CO)N1C[C@H](C)[C@@H](CN(C)Cc2ccc(Oc3ccccc3)cc2)Oc2cc(Br)ccc2S1(=O)=O | inactive: 1.04
C[C@@H]1CN([C@H](C)CO)C(=O)c2cc(NC(=O)NC3CCCCC3)ccc2O[C@H]1CN(C)S(=O)(=O)c1cn(C)cn1 | inactive: 0.979
C[C@H](CO)N1C[C@H](C)[C@@H](CN(C)C(=O)Nc2cccc3ccccc23)Oc2ccc(NS(=O)(=O)c3ccc(Cl)cc3)cc2C1=O | inactive: 1.02
C[C@H]1CCCCO[C@H](CN(C)S(=O)(=O)c2ccc(Cl)cc2)[C@@H](C)CN([C@@H](C)CO)C(=O)c2cc(NC(=O)c3ccccc3)ccc2O1 | inactive: 1.01
Cc1ccc(S(=O)(=O)N(C)C[C@H]2Oc3ccc(NC(=O)Nc4ccc(C(F)(F)F)cc4)cc3C(=O)N([C@H](C)CO)C[C@H]2C)cc1 | inactive: 1.01
C[C@H]1CN([C@@H](C)CO)C(=O)c2cc(NC(=O)Nc3ccc(C(F)(F)F)cc3)ccc2O[C@@H]1CN(C)C(=O)Nc1ccccc1 | inactive: 0.967
C[C@@H]1CCCCO[C@H](CN(C)Cc2ccc3c(c2)OCO3)[C@H](C)CN([C@H](C)CO)C(=O)c2cc(NC(=O)Nc3cccc4ccccc34)ccc2O1 | inactive: 1.03
COCC(=O)Nc1ccc2c(c1)OC[C@H](C)N(C(=O)Cc1ccccn1)C[C@@H](C)[C@@H](OC)CN(C)C2=O | inactive: 1.03
CC[C@@H](C)N[C@H]1CCS(=O)(=O)C1 | inactive: 0.981
C[C@H](CO)N1C[C@H](C)[C@H](CN(C)Cc2ccc(C(=O)O)cc2)Oc2c(NS(=O)(=O)c3cn(C)cn3)cccc2C1=O | inactive: 1.02
CC(C)OC(=O)c1nnc(N)[nH]1 | inactive: 0.967
CC(C)NC(=O)N[C@@H]1C=C[C@H](CC(=O)NCCCN(C)C)O[C@@H]1CO | inactive: 1.07
CO[C@@H]1CN(C)C(=O)c2cc(NC(=O)Nc3cccc(F)c3)ccc2OC[C@H](C)N(C(=O)Nc2c(C)noc2C)C[C@@H]1C | inactive: 1
C[C@@H]1CN([C@@H](C)CO)C(=O)c2cc(NC(=O)CCC(F)(F)F)ccc2O[C@@H](C)CCCCO[C@@H]1CN(C)Cc1ccccc1 | inactive: 0.987
COCC(=O)Nc1ccc2c(c1)C(=O)N(C)C[C@@H](OC)[C@H](C)CN(Cc1ccccc1F)[C@H](C)CO2 | inactive: 0.989
C[C@@H]1CN([C@@H](C)CO)C(=O)c2cc(Br)cnc2O[C@H]1CN(C)C(=O)CCN1CCCCC1 | inactive: 1.02
C[C@H](CO)N1C[C@H](C)[C@H](CN(C)S(=O)(=O)c2cn(C)cn2)Oc2ncc(C#Cc3ccc(C(F)(F)F)cc3)cc2C1=O | inactive: 0.902
CCCCc1c(C)nc2ccc(Br)cc2c1SC(N)N | inactive: 1.01
